In publication PMC12136788:
The other results are listed elsewhere or left out.

T1: UNK ZnF1-3 (human, UniProt Q9C0B0 31-174)
T1 sequence: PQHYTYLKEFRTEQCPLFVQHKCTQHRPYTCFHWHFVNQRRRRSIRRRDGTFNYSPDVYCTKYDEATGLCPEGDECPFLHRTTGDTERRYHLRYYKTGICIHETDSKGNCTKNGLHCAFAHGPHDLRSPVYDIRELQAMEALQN

B1: chr1:163112212:163112213:-_ENSG00000143248_ENST00000313961|hu_hu|hu_hu_hu_mus_False|38_78 (ssRNA)
RNA: GGGAGUUCUACAGUCCGACGAUCUUUUAUUAUCAGUAAGAGUGAGUUACAUACUAGAUAAAGUAUUGGAUACAAUAAUCAGGAAACAAACACUAUUUUUCUUGAAUUUAAAACUUUAUGAGCGAAGUGCUGGCACAGGACUUACAACAGAGGAUUGAGCAUCA
B2: chr1:115276673:115276674:-_ENSG00000009307_ENST00000339438|perfect_dup|FALSE|FALSE (ssRNA)
RNA: GGGAGUUCUACAGUCCGACGAUCUGUGAAUUCCACGUCAUCUCCAGGCUGUAGGGUUUCUAGGUCACCUUUAAAUUCACUAUAGUGAAAGAAUAUCUCUUUUACAACAUCACCUCUUUCGAUAAAGCCAAACGCCUCCUUCAUCAACAGAGGAUUGAGCAUCA
B3: chr5:23013406:23013407:-_ENSMUSG00000062604_ENSMUST00000088392|mus_hu|FALSE|FALSE (ssRNA)
RNA: GGGAGUUCUACAGUCCGACGAUCGUCCAAUGUACUGGGAACAUUUGCUAGCUCAGAAUGCAAUAUUGGUAGAAUUUGCUAAGAAUUCAACCAAGGAUGCCGAAGGCAUUCGCCAGCUGAGGCUCGUUUUUCUGGAACCAUUUCCAACAGAGGAUUGAGCAUCA
B4: chr2:102141417:102141418:-_ENSMUSG00000027189_ENSMUST00000102573|mus_mus|FALSE|FALSE (ssRNA)
RNA: GGGAGUUCUACAGUCCGACGAUCUGGGUGUGUACAAAUCUCAUUCUCAUUUACACACACACACACACACACACACACACACACACACACACACACACACACACACACUCCAGGAAGGGAGUCCAAAAUUAGUGAUUUGUAUUGCAACAGAGGAUUGAGCAUCA
B5: chr6:41757443:41757444:+_ENSG00000214736_ENST00000398881|hu_mus|hu_hu_hu_mus_False|8_88 (ssRNA)
RNA: GGGAGUUCUACAGUCCGACGAUCGAACCGUGCAGAGGCAACAUCUCGGAAUUCUGCGGGGGAUGGGGGGGCAGUGGGGGGGGGUUCAGGCAAGGAGAGGGAGUCAACUUCAGCUGCCACUCAGGUAGCUGCCAUCAGUCACAGCAACAGAGGAUUGAGCAUCA
B6: 60591913_60592033_947_CDS_ENSMUSG00000049323_ENSMUST00000056907|mouse|control|control (ssRNA)
RNA: GGGAGUUCUACAGUCCGACGAUCCUGCUGCAUGAUUUUAUGCUGGUCUGCGGAGAUAUAAGCCAUACAAAAGGGCCUCACAAAGCCCCUGGCCUCCAGGUCGUACAAGGUGAGGUGGUGCACAUAUGCAAAGGCCCCUUCCUUCAACAGAGGAUUGAGCAUCA
B7: 27324431_27324551_3741_3pUTR_ENSMUSG00000024924_ENSMUST00000167487|mouse|control|control (ssRNA)
RNA: GGGAGUUCUACAGUCCGACGAUCGGUGAAGUGGUGCAGCCAUGUAAUUCUAGAAGUUGAGAGGCUGAGGCAGGAGCAUUGCAAGCUUGAGGCCAGCAAGGGAAGAAAGGAAGGAAGGAAAGAAGGAAGGAAGUGAUAGAUUUGCAACAGAGGAUUGAGCAUCA
B8: chr13:108984363:108984364:+_ENSMUSG00000021694_ENSMUST00000054835|mus_mus|FALSE|FALSE (ssRNA)
RNA: GGGAGUUCUACAGUCCGACGAUCCUGUCUCAAAACCAACAAUAACGGGAAGAACAACCCUGCUCGUGCUGAAGUGCACACAACACUGUCGUGGAAGUCUGAUGGACAAGGAGCCAGGGCUGACAGUCACCCAUCCUCGUCACUCAACAGAGGAUUGAGCAUCA
B9: chr14:31821845:31821846:+_ENSMUSG00000021916_ENSMUST00000168584|mus_mus|FALSE|FALSE (ssRNA)
RNA: GGGAGUUCUACAGUCCGACGAUCGGGAAUCUCCUCUUGCCUCUCACUCACUGGAUGCUGAUGAGCACUGGCGACAAAGUCUAUGGGCUGAAGCCCCACAAUUCCCGAAUCUGAAAUGUCAUUCUUUAACAAACUGCUCAAGCUCAACAGAGGAUUGAGCAUCA
B10: 234749955_234750075_1476_CDS_ENSG00000123485_ENST00000411486|human|control|control (ssRNA)
RNA: GGGAGUUCUACAGUCCGACGAUCGCUGGAAGGUAAACUCAGCCUGCGGGUUUCUAAGCCCUGAAGGCCACCAGGACUCGCAGGACCCCCUCUGUACAUGUUCAUGGCCCAGGAGUCCGGGAGGCACAUCCGGCGAGGCUGGUUCAACAGAGGAUUGAGCAUCA
B11: chr3:149686237:149686238:-_ENSG00000070087_ENST00000452853|perfect_dup|FALSE|FALSE (ssRNA)
RNA: GGGAGUUCUACAGUCCGACGAUCCUCCCCACCUUGACUCUUUGUCCGGAUGUCCAUUGUGCAGUCACCAUCGACGUAUAGACUAUCUCUGAUCACUGAGCAUUUCUUCGCGCCAAGAGUCAAACCGUUGGUAAAGAAACCUUCCAACAGAGGAUUGAGCAUCA
B12: chr7:135612270:135612271:-_ENSG00000105887_ENST00000393085|hu_mus|hu_hu_hu_mus_False|28_98 (ssRNA)
RNA: GGGAGUUCUACAGUCCGACGAUCGUUUUUUUCUGAGUAAGUAUUACGUACUUCAGUGGAAAACAAAACUUAACCUUUUAUUAAUGCGUGUUGUACCAAAAGCAGACCAUGGUUUUACAUUUAUUCAAAAAUAUUAACAUUAAGCAACAGAGGAUUGAGCAUCA
B13: chr4:95690885:95690886:+_ENSMUSG00000028572_ENSMUST00000156910|mus_mus|mus_mus_mus_hu_False|38_98 (ssRNA)
RNA: GGGAGUUCUACAGUCCGACGAUCUUUAGAAAAUGUUAAUGUUAAAUCUAAAAUAUUUUCAAAGGCUUAUUUUAUUUUACCAGAAGUCACAGGCAAGCAGACACCAUAAGAAUAUAUGAAAAUGAAACUCAACAAUAUAACUGUCAACAGAGGAUUGAGCAUCA
B14: chr3:135071361:135071362:-_ENSMUSG00000028165_ENSMUST00000029815|mus_hu|motif|central (ssRNA)
RNA: GGGAGUUCUACAGUCCGACGAUCUCUCUGUGAAAACACAAGUAAUUCUUGAUGGCAAUAUUUUUCUUAAUUCACCGGACCAAAUGCAGUUUGGAAGGCCAAAACGAGAAAAAAACACUUCAGAUUAUCAAAACCAAAAGAGAUCAACAGAGGAUUGAGCAUCA

Target: T1, UNK ZnF1-3
Assay: nsRBNS (natural sequence RNA bind-n-seq); RBNS binding buffer (assumed for nsRBNS): 25 mM Tris pH 7.5, 150 mM KCl, 3 mM MgCl2, 0.01% Triton X-100, 500 ug/ml BSA, 20 U/ml SUPERase-In, 4 C; UNK is unkempt and MSI1 is Musashi-1; names of the RNAs are library labels; protein concentration not given here; high values mean tight binding

Binder	binding signal
B1	1.09 enrichment R
B2	1.29 enrichment R
B3	1.03 enrichment R
B4	1.37 enrichment R
B5	2.67 enrichment R
B6	0.747 enrichment R
B7	2.89 enrichment R
B8	1.06 enrichment R
B9	1.07 enrichment R
B10	0.551 enrichment R
B11	1.08 enrichment R
B12	1.08 enrichment R
B13	2.74 enrichment R
B14	1.36 enrichment R
